Measured values published in patent US20060070135A1, “Compositions and methods for inhibiting the enzymatic activity of PTP-1B” (priority 1998, published 2006).

target: T1, human PTP-1B (PTP-1B-GST fusion protein) (Homo sapiens, UniProt P18031); experiment: biochemical
T1 sequence (P18031 1-435): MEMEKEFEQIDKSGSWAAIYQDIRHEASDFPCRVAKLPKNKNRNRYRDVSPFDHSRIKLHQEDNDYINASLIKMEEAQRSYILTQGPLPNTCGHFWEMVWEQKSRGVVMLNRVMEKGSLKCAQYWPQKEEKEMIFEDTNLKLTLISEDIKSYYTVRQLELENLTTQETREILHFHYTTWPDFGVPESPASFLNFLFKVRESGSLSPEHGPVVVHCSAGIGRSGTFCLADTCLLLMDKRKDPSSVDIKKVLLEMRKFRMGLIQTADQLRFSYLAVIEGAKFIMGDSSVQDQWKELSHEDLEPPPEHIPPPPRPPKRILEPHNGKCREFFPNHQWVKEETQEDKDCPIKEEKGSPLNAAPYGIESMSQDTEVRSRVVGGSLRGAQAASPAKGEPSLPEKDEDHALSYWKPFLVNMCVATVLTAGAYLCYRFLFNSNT

Structure (SMILES)	IC50 [nM]
S=C1NC(=S)/C(=C\c2ccc(-c3ccc(Br)cc3)o2)S1 [compound 1, 5-[5-(4-bromophenyl)-furan-2-ylmethylene]-thiazolidine-2,4-dithione]	5230
COc1ccc(-c2csc(N3N=C(c4ccc([N+](=O)[O-])cc4)C(=NNc4ccc(S(N)(=O)=O)cc4)C3=O)n2)cc1 [compound 15, 4-{N′-[1-[4-(4-methoxyphenyl)-thiazol-2-yl]-3-(4-nitrophenyl)-5-oxo-1,5-dihydropyrazol-4-ylidene]-hydrazino}-benzenesulfonamide]	810
O=C(O)c1ccc(Nc2nc(Cl)nc(Cl)n2)cc1-c1c2ccc(=O)cc-2oc2cc(O)ccc12 [compound 9, 4-(4,6-dichloro-[1,3,5]triazin-2-ylamino)-2-(6-hydroxy-3-oxo-3H-xanthen-9-yl)benzoic acid]	910
CCc1nnc(NS(=O)(=O)c2ccc(N/C=C(\C#N)c3nc(-c4ccc(Br)cc4)cs3)cc2)s1 [compound 4, 4-{2-[4-(4-bromophenyl)-thiazol-2-yl]-2-cyanovinylamino}-N-(5-ethyl-[1,3,4]thiadiazol-2-yl)-benzenesulfonamide]	610
O=C1C=CC(=O)c2c(O)cccc21 [compound 21, 5-hydroxy-[1,4]-naphthoquinone]	2210
N#Cc1c(N)c2c(c(O)c1C#N)C(=O)c1ccccc1C2=O [compound 24, 1-amino-4-hydroxy-9,10-dioxo-dihydroanthracene-2,3-dicarbonitrile]	830
Nc1nnnn1/N=C/c1cc(I)cc(I)c1O [compound 19, 2-[(5-aminotetrazol-1-ylimino)-methyl]-4,6-diiodophenol]	1400
CCc1nnc(NS(=O)(=O)c2ccc(NC(=S)NC(=O)/C=C/c3ccc(C(C)C)cc3)cc2)s1 [compound 14, N-(5-ethyl-[1,3,4]thiadiazol-2-yl)-4-{3-[3-(4-isopropylphenyl)-acryloyl]-thioureido}-benzenesulfonamide]	620
O=[N+]([O-])c1ccc(O)c(/C=N/N=c2/[nH]c3nonc3nc2Nc2ccc(I)cc2)c1 [compound 20, 2-{[6-(4-iodophenylamino)-4H-[1,2,5]oxadiazolo[3,4-b]pyrazin-5-ylidene]-hydrazonomethyl}-4-nitrophenol]	730
O=C(/C=C/c1ccco1)Nc1ccc(C(=O)O)cc1NC(=O)/C=C/c1ccco1 [compound 16, 3,4-bis-(3-furan-2-ylacryloylamino)-benzoic acid]	1000
Cc1cc(NS(=O)(=O)c2ccc(NC(=O)c3ccc(C(=O)Nc4ccc(S(=O)(=O)Nc5cc(C)on5)cc4)cc3)cc2)no1 [compound 6]	1050
O=C(O)c1ccc(N2C(=O)/C(=C/c3ccc(-c4ccc([N+](=O)[O-])cc4)o3)C=C2c2ccccc2)cc1 [compound 17, 4-{3-[5-(4-nitrophenyl)-furan-2-ylmethylene]-2-oxo-5-phenyl-2,3-dihydropyrrol-1-yl}-benzoic acid]	790

Stronger by IC50, values ahead:

IC50 [nM]	Structure (SMILES)
560	Nc1c(S(=O)(=O)O)cc(S(=O)(=O)O)c2cccc(O)c12 [compound 11, 4-amino-5-hydroxynaphthalene-1,3-disulfonic acid]
420	N#CC(C#N)=C1CSc2sc(=S)sc2SC1 [compound 13, 2-(2-thioxo-[1,3]dithiolo[4,5-b][1,4]dithiepin-6-ylidene)malononitrile]
370	N#C/C(=C\c1cc(Br)c(O)c(Br)c1)c1nc2ccccc2c(=O)[nH]1 [compound 5, 3-(3,5-dibromo-4-hydroxyphenyl)-2-(4-oxo-3,4-dihydroquinazolin-2-yl)-acrylonitrile]
310	O=S(=O)(O)c1cc(N=Nc2ccc(O)cc2)ccc1C=Cc1ccc(N=Nc2ccc(O)cc2)cc1S(=O)(=O)O [compound 2, 1,2-Bis-[4-(4-hydroxyphenylazo)-2-sulfophenyl]-ethylene]
300	Nc1nonc1/N=N/c1cc(/C=N/c2ccccc2Br)c(O)cc1O [compound 7, 4-(4-aminofurazan-3ylazo)-6-[(2-bromophenylimino)-methyl]-benzene-1,3,diol]
290	Nc1nonc1/N=N/c1cc(/C=N/c2cccc3nsnc23)c(O)cc1O [compound 8, 4-(4-aminofurazan-3-ylazo)-6-(benzo[1,2,5]thiadiazol-4-yliminomethyl)-benzene-1,3-diol]
270	COc1cc(/C=C2/SC(=S)N(c3cccc(Cl)c3)C2=O)cc([N+](=O)[O-])c1O [compound 22, 3-(3-chlorophenyl)-5-(4-hydroxy-3-methoxy-5-nitrobenzylidene)-2-thioxothiazolidin-4-one]
210	O=S(=O)(O)c1cc(O)c2c(/N=N/c3c(S(=O)(=O)O)cc4cc(S(=O)(=O)O)cc(O)c4c3O)cc(S(=O)(=O)O)cc2c1 [compound 3, 3-(4′-hydroxy-2′,7′-disulfonaphth-5′-ylazo)-4,5-dihydroxynaphthalene-2,7-disulfonic acid]
